Among the data in the supplement of paper PMC8183993 are nuclei count values, retold here.

Where “and” joins values, the source holds several entries; their conditions need not be identical. Equal entries are not always repeated. Structures can show the parent of a compound that is named as a salt. ± gives the standard deviation of the averaged measurements. Whole data set: some 3,200 compounds, median “nuclei count (viability) relative to DMSO” near 99, cut for the lowest 2% near 16. The list shows a part of the results.

The subject of the experiment is U2OS. Kind of experiment: nuclei count (viability) relative to DMSO (% of DMSO); higher = more viable cells. Conditions: 10 µM; 24 h. Here is the method: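 Primary image-based screen in U2OS cells: compounds at 10 uM for 24 h, then a 1 h o-propargyl-puromycin (OPP) pulse, click labelling, and high-throughput microscopy. Mean cytoplasmic OPP intensity and nuclei count were normalised to DMSO wells within each plate (DMSO = 100) and averaged over triplicate plates.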
The compound `CC[N+](C)(C)c1cccc(O)c1` [Edrophonium chloride] showed a nuclei count of 102. With `Cc1ccc(-c2csc3ncnc(SCCC(=O)O)c23)cc1` the figure was 104; with `COc1ccc(CCN(C)CCCOc2ccc(S(=O)(=O)c3c(C(C)C)n(C)c4ccccc34)cc2)cc1OC`, 47.5. With `NCCc1c[nH]cn1` [Histamine dihydrochloride] the figure was 99.3; with `OC(Cn1cncn1)(Cn1cncn1)c1ccc(F)cc1F` [Fluconazole], 109. As for `CCCOc1cc(N)ccc1C(=O)OCCN(CC)CC` [Propoxycaine hydrochloride], the nuclei count was determined as 91.2. With `O=C(/C=C/C#Cc1cccc(NS(=O)(=O)c2ccccc2)c1)NO` [Oxamflatin] the figure was 26.2; with `Cc1cn[nH]c1` [Fomepizole], 104.

Turning to `CC(=O)OCC(=O)[C@@]1(O)CC[C@H]2[C@@H]3CCC4=CC(=O)CC[C@]4(C)[C@@]3(F)[C@@H](O)C[C@@]21C` [Fludrocortisone acetate], the nuclei count was found to be 96.2. With `CC(=Cc1ccc(C(=O)O)cc1)c1ccc2c(c1)C(C)(C)CCC2(C)C` the figure was 98.65 ± 0.044; with `COC(=O)C1=C(C)NC(C)=C(C(=O)OCCCN2CCC(c3ccccc3)(c3ccccc3)CC2)[C@@H]1c1cccc([N+](=O)[O-])c1` [(R)-(-)-Niguldipine hydrochloride], 75.8; with `Cc1ccc(C(=O)c2ccc(CC(=O)O)n2C)cc1` [Tolmetin sodium salt dihydrate], 97.7. With `COC(=O)Nc1nc2cc(C(=O)c3cccs3)ccc2[nH]1` [Nocodazole] the figure was 16.9 ± 1; with `CCCCN(CCCC)CCCOC(=O)c1ccc(N)cc1` [Butacaine], 92.1.

`O=C(O)CN1C(=O)c2cccc3cccc(c23)C1=O` [Alrestatin]: the nuclei count was found to be 97.9. To `CC[N+](C)(CC)CCOC(=O)C1c2ccccc2Oc2ccccc21` [Methantheline bromide] belongs 102; to `CC(=O)OCC(=O)[C@@]1(O)CC[C@H]2[C@@H]3CCC4=CC(=O)CC[C@]4(C)[C@H]3[C@@H](O)C[C@@]21C` [Cortisol acetate], 105; to `CC(C)c1c(C(=O)Nc2ccccc2)c(-c2ccccc2)c(-c2ccc(F)cc2)n1CC[C@@H](O)C[C@@H](O)CC(=O)O` [Atorvastatin], 111.

`CC(C)c1c(C(=O)Nc2ccccc2)c(-c2ccccc2)c(-c2ccc(F)cc2)n1CC[C@@H](O)C[C@@H](O)CC(=O)O` [Atorvastatin calcium (Lipitor)] showed a nuclei count of 95.8.

`Cc1ncc(C[n+]2csc(CCO)c2C)c(N)n1` [Thiamine hydrochloride] registered a nuclei count of 107. Compound `CC(C)Oc1ccc(-c2c[nH]cc2CN(C)CCN)cc1` came in with a nuclei count of 96.8.

As to `CCN[C@H]1CN(CCCOC)S(=O)(=O)c2sc(S(N)(=O)=O)cc21` [Brinzolamide], the nuclei count was 98.9. In turn, `NS(=O)(=O)c1cc(C2(O)NC(=O)c3ccccc32)ccc1Cl` (configuration not stated) [Chlorthalidone] displayed a nuclei count of 101.

For `CC(C)(C)c1cnc(CSc2cnc(NC(=O)C3CCNCC3)s2)o1`, the nuclei count was found to be 42.3.

The compound `CCCCCCCCCCCCCCCC(=O)OC/C=C(C)/C=C/C=C(C)/C=C/C1=C(C)CCCC1(C)C` [Retinyl palmitate] returned a nuclei count of 111. With `C=CC(N)CCC(=O)O` (configuration not stated) [Vigabatrin] the figure was 105. To `CC(=O)Nc1ccc(C(=O)Nc2ccccc2N)cc1` belongs 73.6 ± 7.5; to `COc1cc2c(Nc3ccc(NC(=O)c4ccccc4)cc3)ncnc2cc1OCCCN1CCOCC1`, 49.8 and 53.3; to `O=C(O)[C@]1(Cc2cccc(Nc3nccs3)n2)CC[C@@H](Oc2cccc(Cl)c2F)CC1`, 77.7 ± 2.7.

The compound `COc1cc2c(NC3CCN(C(C)C)CC3)nc(C3CCCCC3)nc2cc1OCCCN1CCCC1` showed a nuclei count of 99. Consider `CC(Cc1cccc(C(F)(F)F)c1)NCCOC(=O)c1ccccc1` (configuration not stated) [Benfluorex hydrochloride], for which the nuclei count worked out at 107. For `CC(=O)S[C@@H]1CC2=CC(=O)CC[C@]2(C)[C@H]2CC[C@@]3(C)[C@@H](CC[C@@]34CCC(=O)O4)[C@H]12` [Spironolactone], the nuclei count worked out at 100 ± 4.3.

`C#Cc1cccc(Nc2ncnc3cc(OC)c(OCCCCCCC(=O)NO)cc23)c1`: the nuclei count stood at 29 ± 2.8. To `CCCc1cc(C(N)=S)ccn1` [Prothionamide] belongs 108; to `NNCCc1ccccc1` [Phenelzine sulfate], 100; to `CC(C)(O)[C@H]1CC[C@@](C)([C@H]2[C@@H](O)C[C@@]3(C)[C@@H]4C[C@H](O[C@@H]5O[C@H](CO)[C@@H](O)[C@H](O)[C@H]5O)[C@H]5C(C)(C)[C@@H](O[C@@H]6OC[C@@H](O)[C@H](O)[C@H]6O)CC[C@@]56C[C@@]46CC[C@]23C)O1` [Astragaloside A], 106.

As to `C=C1CC[C@H](O)C/C1=C/C=C1\CCC[C@]2(C)[C@@H]([C@H](C)CCCC(C)C)CC[C@@H]12` [Vitamin D3 (Cholecalciferol)], the nuclei count is 99.7. The compound `Cn1c(CNc2ccc(C(=N)N)cc2)nc2cc(C(=O)N(CCC(=O)O)c3ccccn3)ccc21` [BIBR 953 (Dabigatran etexilate, Pradaxa)] displayed a nuclei count of 108.

In the case of `CNC1CCCN(c2c(F)cc3c(=O)c(C(=O)O)cn(C4CC4)c3c2OC)C1` (configuration not stated) [Balofloxacin], the nuclei count was determined as 102. Compound `C[C@H]1O[C@H](O[C@H]2[C@H](O)[C@@H](O)[C@@H](O[C@H]3[C@H](O)[C@@H](O)C(O)O[C@@H]3CO)O[C@@H]2CO)[C@H](O)[C@@H](O)[C@@H]1N[C@H]1C=C(CO)[C@@H](O)[C@H](O)[C@H]1O` (some centres not stated) [Acarbose] gave a nuclei count of 105 ± 4.5. To `Nc1ccc(CC(CC(=O)O)C(=O)O)cc1` [4-Amino-D, L-benzylsuccinic acid] belongs 97.5; to `CC(C)(C=O)Cc1cc(C(C)(C)C)c(O)c(C(C)(C)C)c1`, 99.2. Regarding `CO[C@H]1/C=C/O[C@@]2(C)Oc3c(C)c(O)c4c(O)c(c(/C=N/N5CCN(C6CCCC6)CC5)c(O)c4c3C2=O)NC(=O)/C(C)=C\C=C\[C@H](C)[C@H](O)[C@@H](C)[C@@H](O)[C@@H](C)[C@H](OC(C)=O)[C@@H]1C` [Rifapentine (Priftin)], the nuclei count stood at 98.5. Compound `CO[C@H]1/C=C/O[C@@]2(C)Oc3c(C)c(O)c4c(O)c(c(/C=N/N5CCN(C6CCCC6)CC5)c(O)c4c3C2=O)NC(=O)/C(C)=C\C=C\[C@H](C)[C@H](O)[C@@H](C)[C@@H](O)[C@@H](C)[C@H](OC(C)=O)[C@@H]1C` [Rifapentine] came in with a nuclei count of 104. The compound `CC(C)(C)NC[C@@H](O)COc1cccc2c1CCCC2=O` [(+) -Levobunolol hydrochloride] registered a nuclei count of 99.3. To `N=C(N)NC(=N)NCCc1ccccc1` [Phenformin hydrochloride] belongs 103 ± 8.1; to `COC(=O)[C@@H](N)CSC/C=C(\C)CC/C=C(\C)CCC=C(C)C` [S-Farnesyl-L-cysteine methyl ester], 109; to `CN1CCC(=C2c3ccccc3C=Cc3ccccc32)CC1` [Cyproheptadine hydrochloride], 106 ± 0.78. Compound `CCc1c2c(nc3ccc(OC(=O)N4CCC(N5CCCCC5)CC4)cc13)-c1cc3c(c(=O)n1C2)COC(=O)[C@]3(O)CC` [Irinotecan] showed a nuclei count of 51.6.

Compound `CCc1c2c(nc3ccc(OC(=O)N4CCC(N5CCCCC5)CC4)cc13)-c1cc3c(c(=O)n1C2)COC(=O)[C@]3(O)CC` [Irinotecan hydrochloride trihydrate] registered a nuclei count of 57. To `CCc1c2c(nc3ccc(OC(=O)N4CCC(N5CCCCC5)CC4)cc13)-c1cc3c(c(=O)n1C2)COC(=O)[C@]3(O)CC` belongs 56.5; to `CNCCC=C1c2ccccc2CCc2ccccc21` [Nortriptyline hydrochloride], 101; to `OC[C@H]1O[C@@H](OCCc2ccc(O)cc2)[C@H](O)[C@@H](O)[C@@H]1O` [Salidroside (Rhodioloside)], 96.8. For `CC1=C(/C=C/C(C)=C/C=C/C(C)=C/C(=O)O)C(C)(C)CCC1O` (configuration not stated) [4-Hydroxyretinoic acid], the nuclei count was 101. For `C[C@H]1[C@H](NC(=O)/C(=N\OC(C)(C)C(=O)O)c2csc(N)n2)C(=O)N1S(=O)(=O)O` [Aztreonam (Azactam, Cayston)], the nuclei count stood at 86. Consider `C[C@H]1[C@H](NC(=O)/C(=N\OC(C)(C)C(=O)O)c2csc(N)n2)C(=O)N1S(=O)(=O)O` [Aztreonam], for which the nuclei count stood at 111. With `Cc1c(Cl)cccc1Nc1ncccc1C(=O)O` [Clonixin Lysinate] the figure was 98.6.

With `CCC[C@H](NC(=O)/C(C#N)=C/c1cccc(Br)n1)c1ccccc1`, the nuclei count worked out at 5.45. On to `Cc1ccc(/C(=C\CN2CCCC2)c2ccccn2)cc1` [trans-Triprolidine hydrochloride], for which the nuclei count turned out to be 102. As for `Cc1ccc(/C(=C\CN2CCCC2)c2ccccn2)cc1` [Triprolidine hydrochloride], the nuclei count turned out to be 117. `C=C1/C(=C\C=C2/CCC[C@]3(C)[C@@H]([C@H](C)CCCC(C)(C)O)CC[C@@H]23)C[C@@H](O)C[C@@H]1O` [Calcitriol (Rocaltrol)] returned a nuclei count of 110. To `C=C1/C(=C\C=C2/CCC[C@]3(C)[C@@H]([C@H](C)CCCC(C)(C)O)CC[C@@H]23)C[C@@H](O)C[C@@H]1O` [1a,25-Dihydroxyvitamin D3] belongs 92.6; to `CC(C)(O/N=C(\C(=O)N[C@@H]1C(=O)N2C(C(=O)[O-])=C(C[n+]3ccccc3)CS[C@H]12)c1csc(N)n1)C(=O)O` [Ceftazidime pentahydrate], 97.4. Turning to `CN(Cc1ccccc1)C(=O)[C@H](Cc1ccc2ccccc2c1)NC(=O)[C@@H]1C[C@@H](O)CN1C(=O)c1cn(C)c2ccccc12`, the nuclei count worked out at 98. Compound `Cc1cn([C@@H]2C[C@@H](O)[C@H](CO)O2)c(=O)[nH]c1=O` [Telbivudine (Sebivo, Tyzeka)] returned a nuclei count of 92.3. To `NC(=O)c1ncn([C@@H]2O[C@H](CO)[C@@H](O)[C@H]2O)c1O` [Mizoribine (Bredinin)] belongs 103.

For the compound `CN1CCN(C(c2ccccc2)c2ccc(Cl)cc2)CC1` (configuration not stated) [Chlorcyclizine hydrochloride], the nuclei count came to 101.
